Where “and” joins values, the source holds several entries; their conditions need not be identical. Equal entries are not always repeated. This list was built around the results that the source calls inconclusive (neither active nor inactive); the mix of calls is not that of the screen. A potency beside an inconclusive call is a rough fit, not a confirmed value. Calls of active or inactive are those of the source. Calls come from the whole dose curve; as a rule, active = well fitted inhibition curve with a large enough effect in the repeat runs; inconclusive = weak or mixed curves; inactive = flat fitted curve, though single readings scatter.
Assay: qHTS assay to identify small molecule HDAC inhibitors (AID 1259364); note: nearly all actives have a fitted effect of over 45% in size
Details: HCT-116 HDAC-Glo I/II luminescence, 2 h; series mostly up to 92.4 µM
Source text: U.S. Tox21 Program National Center for Advancing Translational Sciences [NCATS] NIH Chemical Genomics Center [NCGC] U.S. Environmental Protection Agency [EPA] National Institutes of Environmental Health Sciences [NIEHS] National Toxicology Program [NTP] U.S. Food and Drug Administration [FDA] Tox21 Assay Overview: Histone deacetylases (HDACs) are a group of epigenetic enzymes that regulate gene expression by histone deacetylation. HDACs are capable of introducing epigenetic modifications and such aberrations contribute to the onset and progression of several human diseases, thus making HDACs a popular therapeutic target. For identifying endogenous class I/II HDAC inhibitors a homogenous, luminogenic HDAC I/II cell based assay was used to measure the relative activity of class I and II HDACs from cells. Wild type HCT-116 cells were used to screen Tox21 libraries for identifying class I/II HDAC inhibitors.
Tox21 Assay Protocol Summary: HCT-116 cells were dispensed at 1,500 per well in 5uL of culture medium into white solid bottom 1536-well plates (Greiner Bio-One, Monroe, NC) using a Multidrop Combi (Thermo Scientific, Waltham, MA) dispenser. The assay plates were incubated at 37 C and 5% CO2 for an overnight, and then 23nL of compounds dissolved in DMSO and positive control were transferred using a Pintool station (Wako, San Diego, CA). The assay plates were incubated at 37C and 5% CO2 for 2hr. After compound treatment, 4uL of HDAC-Glo reagent (Promega Corporation, Madison, WI) was added to each well of the assay plates using Flying Reagent Dispenser (FRD, Aurora Discovery, San Diego, CA) and incubated the assay plates at room temperature for 30min. The luminescence signal was quantified using a ViewLux plate reader (Perkin Elmer, Shelton, CT).
Potency is the fitted concentration of half-maximal effect; tags give direction and shape of the fitted curve.

Structure (SMILES)	Potency
NNc1nc(-c2ccccc2)cs1	inconclusive: 17.7 µM [inhibitor, full curve]
CCC(Cl)CC(Cl)C(Cl)C(Cl)C(Cl)C(C)Cl (stereo not given)	inconclusive: 0.298 µM [inhibitor, full curve, poor fit]
CC(C(=O)O)c1ccc2c(c1)[nH]c1ccc(Cl)cc12 (stereo not given)	inconclusive: 33.5 µM [inhibitor, single point]
O=C1c2ccccc2C(=O)C1c1ccc2ccccc2n1	active: 1.91 µM
CC(C)COCC(CN(Cc1ccccc1)c1ccccc1)N1CCCC1 (stereo not given)	inactive
SCCc1cnccn1	inconclusive: 27.3 µM [inhibitor, partial curve]
Cc1ccc(-n2nc(C(C)(C)C)cc2NC(=O)Nc2ccc(OCCN3CCOCC3)c3ccccc23)cc1	inactive
CC(C)COC(=O)c1ccc(O)cc1	inconclusive: 27.3 µM [inhibitor, partial curve]
OCCN1CCN(CCCN2c3ccccc3C=Cc3ccccc32)CC1	inactive
CO[C@@H]1[C@@H](OC)[C@H](C)[C@@](O)(CC(=O)O)O[C@H]1[C@H](C)[C@H]1O[C@@]2(CC[C@@](C)([C@H]3CC[C@@](C)([C@@H]4O[C@@H]([C@H]5O[C@](C)(O)[C@H](C)C[C@@H]5C)C[C@@H]4OC4C[C@H](OC)[C@@H](OC)[C@H](C)O4)O3)O2)C[C@H](O)[C@H]1C (stereo not given in full)	inconclusive: 7.5 µM [inhibitor, full curve]
COc1ccc2nc(N)sc2c1	active: 27.3 µM and active: 24.3 µM
CC(=O)SC[C@@H](Cc1ccccc1)C(=O)NCC(=O)OCc1ccccc1	inactive
N=C(N)c1ccc(OCCCCCOc2ccc(C(=N)N)cc2)cc1	inconclusive: 26.6 µM [inhibitor, partial curve]
O=C(NC(Cc1cc(=O)[nH]c2ccccc12)C(=O)O)c1ccc(Cl)cc1 (stereo not given)	inactive
CCCCCCC(O)CCCCCCCCCCC(=O)OC (stereo not given)	inactive
CC(C(=O)O)c1ccc(C(=O)c2cccs2)cc1 (stereo not given)	active: 29.8 µM
O=C(O)c1cc(-c2ccccc2)nc2ccccc12	inconclusive: 45.1 µM [inhibitor, partial curve, poor fit] and inconclusive: 13.3 µM [inhibitor, partial curve]
c1cc(N(CC2CO2)CC2CO2)ccc1Cc1ccc(N(CC2CO2)CC2CO2)cc1 (stereo not given)	inconclusive: 43.3 µM [inhibitor, partial curve]
C=C(C)C(=O)OCCOCCOCCOCCOC(=O)C(=C)C	inactive
Nc1cccc2c1CN(C1CCC(=O)NC1=O)C2=O (stereo not given)	inactive

Structure (SMILES)	Potency
Cc1cc(O)ccc1N	inconclusive: 68.9 µM [inhibitor, partial curve, poor fit]
Sc1nc2ccccc2s1	inconclusive: 61.1 µM [inhibitor, partial curve, poor fit]
CCCCCCCCCCCC[N+](C)(C)CCCS(=O)(=O)[O-]	inactive
NC(=O)N(O)[C@@H]1COc2cc(OCc3ccccc3)ccc21	active: 1.72 µM
COc1ccc(NC(=O)CC(C)=O)cc1	inconclusive: 54.5 µM [inhibitor, partial curve]
C=Cc1cccc(C)c1	inactive
CCc1ccc2c(c1)C(=O)c1ccccc1C2=O	active: 0.77 µM
C#Cc1ccc(-c2ccccc2F)cc1	inactive
Sc1nc(S)nc(S)n1	inactive
CCOC(=O)C(C)Oc1ccc(Oc2cnc3cc(Cl)ccc3n2)cc1 (stereo not given)	inconclusive: 40.5 µM [inhibitor, partial curve]
Cc1nccn1-c1ccc(Sc2cccc(C3(C(N)=O)CCOCC3)c2)cc1	inconclusive: 34.4 µM [inhibitor, partial curve, poor fit]
Nc1nc2ccc(OC(F)(F)F)cc2s1	inconclusive: 26.6 µM [inhibitor, partial curve]
Cc1cc(O)cc(C)c1Cl	inactive
CC(C)(C)C1CCC(O)CC1 (stereo not given)	inactive
COC(=O)c1ccccc1O	inconclusive: 38.6 µM [inhibitor, partial curve]
COc1cc([C@H]2Oc3cc([C@H]4Oc5cc(O)cc(O)c5C(=O)[C@@H]4O)ccc3O[C@@H]2CO)ccc1O	inactive
O=C(O)c1ccc2cc(C(=O)O)ccc2c1	inconclusive: 21.9 µM [inhibitor, full curve]
CCOCCOC(=O)/C=C/c1ccc(OC)cc1	active: 11.9 µM
CCNc1ccccc1	inconclusive: 27.8 µM [inhibitor, partial curve]
O=C(Oc1ccccc1)c1ccc2ccccc2c1O	active: 9.69 µM

— PubChem BioAssay (Tox21)
